# Experimental data from PubChem BioAssay AID2675 (National Center for Advancing Translational Sciences (NCATS), 2010).
# About 100 (0.036%) of roughly 280,000 compounds were called active. This list was built around the results that the source calls inconclusive (neither active nor inactive); the mix of calls is not that of the screen. The call rests on the fitted dose curve; in most records, active means well fitted inhibition curve with a large enough effect in the signal ratio, with a control signal flat (not every such curve was filed as active); inconclusive means small, poorly fitted or top-dose-only effect, or effect the other way, or a change in a side signal; inactive means no such curve, though single readings can be large or run the other way; the % refers to the signal ratio. Potencies beside an inconclusive call are fits to weak or partial responses and may not hold up. A note “side channel” means that the fit belongs to a control or component signal, not to the main read-out.
# Biological target: Muscleblind-like protein 1 (Homo sapiens) (UniProt Q9NR56)
# Experiment: qHTS Assay for Inhibitors of MBNL1-poly(CUG) RNA binding
# Details: TR-FRET MBNL1-His/biotin-(CUG)12 binding, 665/545 ratio; activity change, negative = inhibition: at 57.5 µM (top of the series)
# Procedure, shortened: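 TR-FRET readout: Ex 340 nm, 665/545 nm emission ratio, normalized to buffer-only (basal) and MBNL1-(CUG)12 controls. Complex of MBNL1-His with Biotin-(CUG)12, compounds 92 nM–58 uM, incubated 60 min at room temperature.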
# On the % scale 0 is the no-effect control and ±100 the full control effect; potency means the concentration at half of the fitted maximal effect; tags describe the fitted curve by direction and shape or compound fluorescence and quenching.
# Chain of UniProt Q9NR56 (Q9NR56 whole entry, looked up): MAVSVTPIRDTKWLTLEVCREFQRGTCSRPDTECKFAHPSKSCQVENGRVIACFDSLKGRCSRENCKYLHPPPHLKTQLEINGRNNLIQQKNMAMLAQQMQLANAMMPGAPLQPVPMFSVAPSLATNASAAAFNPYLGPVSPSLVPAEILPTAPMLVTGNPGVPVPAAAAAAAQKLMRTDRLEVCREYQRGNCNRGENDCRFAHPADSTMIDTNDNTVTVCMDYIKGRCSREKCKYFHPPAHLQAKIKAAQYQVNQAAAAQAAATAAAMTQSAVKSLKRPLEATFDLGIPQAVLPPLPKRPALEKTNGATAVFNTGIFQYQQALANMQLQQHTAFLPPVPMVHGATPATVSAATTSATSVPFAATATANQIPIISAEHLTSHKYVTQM
SMILES,Potency,"activity change, negative = inhibition"
CCOC(=O)C1=C(C)N=C2SC(C(=O)OC)=CC(=O)N2C1c1cc(OC)c(OC)c(OC)c1 (centres undefined),"inconclusive: 0.0891 µM [fluorescent, side channel, full curve]",–
COc1ccc(OC)c(Nc2c3ccccc3nc3ccccc23)c1,"inconclusive: 10 µM [quencher, side channel, partial curve]",–
O=C(c1ccc(S(=O)(=O)Cc2ccccc2F)c([N+](=O)[O-])c1)N1CCCCCC1,"inconclusive: 17.8 µM [quencher, side channel, partial curve]",–
Cc1cccc(OCC(=O)NCC(=O)N/N=C/c2ccc([N+](=O)[O-])cc2)c1,"inconclusive: 2 µM [quencher, side channel, full curve]",–
COc1ccccc1CNC(=O)COC(=O)c1cc([N+](=O)[O-])ccc1N1CCOCC1,"inconclusive: 14.1 µM [quencher, side channel, partial curve]",–
CCOC(=O)/C(=N\Nc1ccccc1Cl)N1CC(C)OC(C)C1 (centres undefined),active: 0.0251 µM,–
O=C(COc1ccc2oc3c(c2c1)CCCC3)Nc1ccccn1,"inconclusive: 28.2 µM [quencher, side channel, single point]",–
CCCn1c(NCc2cc(OC)ccc2OC)nc2ccccc21,–,inactive: 8.6%
CC(CSc1nc2ccccc2s1)Cn1c(N2CCCC2)nc2c1c(=O)[nH]c(=O)n2C (centres undefined),"inconclusive: 3.98 µM [quencher, side channel, partial curve]",–
O=C(c1ccc(NS(=O)(=O)c2ccccc2)cc1)N1CCN(Cc2ccc3c(c2)OCO3)CC1,–,inactive: 5.3%
O=[N+]([O-])c1ccc(CNc2ccc(F)cc2)s1,"inconclusive: 15.8 µM [quencher, side channel, partial curve]",–
O=C(CCNc1ccc(F)cc1)c1cccc([N+](=O)[O-])c1,"inconclusive: 8.91 µM [quencher, side channel, full curve]",–
CCC1(C)N=c2c(c(=O)n(C)c(=O)n2C)=NO1 (centres undefined),"inconclusive: 31.6 µM [quencher, side channel, partial curve]",–
COc1ccc(NC(=O)CSc2nnc(N)s2)cc1,–,inactive: 0.0341%
O=C(NC(=S)NCC1CCCO1)c1ccco1 (centres undefined),–,inactive: -5.49%
COc1ccc(OC)c(NC(=O)CSc2nnnn2C2CCCC2)c1,–,inactive: -5.64%
Cc1ccc(NCC(O)C(O)C(O)CO)c(N=Nc2ccccc2)c1C (centres undefined),"inconclusive: 14.1 µM [quencher, side channel, partial curve]",–
O=c1[nH][nH]cc1C=Nc1cc(Cl)ccc1O,"inconclusive: 28.2 µM [quencher, side channel, single point]",–
COc1ccc2cc3cc(C(=O)N4CCCCCC4)oc3nc2c1,"inconclusive: 2 µM [quencher, side channel, partial curve, poor fit]",–
COc1ccc(C2CC(O)(c3ccccc3)Oc3cc(OC)cc(OC)c32)cc1 (centres undefined),–,inactive: -2.96%

SMILES,Potency,"activity change, negative = inhibition"
COc1ccc(C(=O)NCC(=O)OCc2ccc(Br)cc2)cc1,"inconclusive: 0.631 µM [fluorescent, side channel, full curve, poor fit]",–
COc1cccc2oc3cc(C#Cc4ccccn4)ccc3c(=O)c12,"inconclusive: 11.2 µM [quencher, side channel, partial curve]",–
Cc1cccn2c(=O)c3cc(C(=O)NCC4CCCO4)c(=N)n(CC4CCCO4)c3nc12 (centres undefined),"inconclusive: 17.8 µM [quencher, side channel, partial curve]",–
COc1coc(C(O)CN)cc1=O (centres undefined),–,inactive: -2.16%
O=C(N/N=C/c1ccccc1)C1CCCN1C(=O)c1cc([N+](=O)[O-])cc([N+](=O)[O-])c1 (centres undefined),"inconclusive: 5.01 µM [quencher, side channel, full curve]",–
CCn1c(SCC(=O)Nc2nnc(C)s2)nc2c(c1=O)SC(C)C2 (centres undefined),"inconclusive: 0.562 µM [quencher, side channel, single point]",–
COc1ccc(CCn2c(=N)c(C(=O)N3CCN(C)CC3)cc3c(=O)n4ccccc4nc32)cc1,"inconclusive: 15.8 µM [quencher, partial curve]",–
CSc1ccc(CN2CCN(C(=O)c3ccc([N+](=O)[O-])cc3)CC2)cc1,"inconclusive: 17.8 µM [quencher, side channel, partial curve]",–
COC(=O)/C=C1\S/C(=N/NC(=O)c2ccccc2)NC1=O,"inconclusive: 25.1 µM [quencher, single point]",–
COc1ccccc1/C=C/C(=O)NCC(=O)N/N=C/c1ccccc1,"inconclusive: 25.1 µM [quencher, side channel, partial curve]",–
Cn1c(=O)n(C)c2cc([N+](=O)[O-])c(N3CCN(C(=O)c4ccccc4)CC3)cc21,"inconclusive: 4.47 µM [quencher, side channel, full curve, poor fit]",–
Cn1cnc([N+](=O)[O-])c1Sc1ccc(Br)cc1,–,inactive: 25.3%
O=C(Nc1ccccc1-c1nnc(SCc2ccc(Cl)cc2)o1)c1ccccc1,"inconclusive: 12.6 µM [quencher, side channel, partial curve]",–
O=C(Nc1cccc([N+](=O)[O-])c1)c1ccc2c(c1)OCCO2,"inconclusive: 0.794 µM [quencher, full curve, poor fit]",–
Cc1cccc(NC(=O)CN2C(=O)S/C(=C\c3cccn3-c3cccc(C(=O)O)c3)C2=O)c1,"inconclusive: 31.6 µM [quencher, side channel, single point]",–
CCCN(CCC)CCCNC(=O)c1cc2c(=O)[nH]c3ccccc3c2s1,"inconclusive: 17.8 µM [quencher, side channel, partial curve]",–
O=C(C[n+]1cc(Br)cc2ccccc21)c1ccc(F)cc1,"inconclusive: 12.6 µM [quencher, side channel, partial curve]",–
O=C(O)c1oc2ccccc2c1-n1cccc1,"inconclusive: 4.47 µM [quencher, side channel, single point]",–
CO/C([O-])=N/c1c[n+](-c2ccc(C)cc2)no1,"inconclusive: 20 µM [quencher, side channel, partial curve, poor fit]",–
